Measurements as given in PubChem BioAssay AID686979 (National Center for Advancing Translational Sciences (NCATS), 2013).
Hit rate of the full screen: of about 420,000 compounds, about 50,000 (12%) were called active. This list was built around the results that the source calls inconclusive (neither active nor inactive); the mix of calls is not that of the screen. The call rests on the fitted dose curve; in most records, active means well fitted inhibition curve with a large enough effect; inconclusive means small, poorly fitted or top-dose-only effect; inactive means flat fitted curve, though single readings scatter. No potency is given beside an inconclusive call; the fits are too rough.

Experiment: qHTS for Inhibitors of human tyrosyl-DNA phosphodiesterase 1 (TDP1): qHTS in cells in presence of CPT; further: nearly all actives have a fitted effect of over 55% in size
Conditions: chicken DT40 Tdp1-/-;hTDP1 cells + 20 nM CPT, ATP luminescence, 48 h; activity change, negative = growth inhibition: at 46.2 µM (top of the series) unless noted
Procedure, shortened: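 Chicken DT40 Tdp1-/- cells complemented with human TDP1, 400 cells/well, exposed to compounds plus 20 nM camptothecin for at least 48 h at 37 C; viability read as ATP content by CellTiter-Glo luminescence.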
On the % scale 0 is the no-effect control and ±100 the full control effect; potency means the concentration at half of the fitted maximal effect; tags describe the fitted curve by direction and shape.

Compound	Potency	activity change, negative = growth inhibition
CCOC(=O)c1ccc(S(=O)(=O)Nc2cc(S(=O)(=O)N3CCOCC3)ccc2O)cc1	inconclusive [inhibitor, single point]	
Cc1ccc(Cl)cc1NC(=O)Cn1nc(-c2cccs2)ccc1=O		inactive: -7.04%
COC(=O)c1cnc(SCc2ccc(C)cc2)n1C		inactive: 6.68%
O=C(c1ccccc1Cl)N1CCc2ccccc2C1	inconclusive [inhibitor, single point]	
CC1=C(C(=O)N2CCOCC2)CC(CC(=O)NC(c2ccccc2)c2ccccc2)C(=O)N1Cc1ccc(C(C)(C)C)cc1 (stereo not drawn)	inconclusive [inhibitor, single point]	
O=C(CN1CCN(C(=O)c2cccc(-n3cnnn3)c2)CC1)Nc1ccccc1Cl		inactive: -28%
O=C(CSCc1ccccc1Cl)NCc1ccc(Cl)c(Cl)c1	inconclusive [inhibitor, single point]	
CCC(C)(C)N1CC(=O)N(Cc2ccccc2)C(c2ccc(OC)cc2)C1=O (stereo not drawn)	active: 9.2 µM	
CCN(CC)c1ccc(NC(=O)CN2CCN(CC(=O)Nc3ccccc3F)CC2)cc1	inconclusive [inhibitor, single point]	
COc1cc(/C=C2\NC(=S)N(C)C2=O)ccc1OCc1cccc(F)c1		inactive: -2.79%
Cc1ccc(C(=O)OCc2ccc3c(c2)OCO3)cc1S(=O)(=O)N1CCCCC1	inconclusive [inhibitor, single point]	
Cc1nnc(SCC(=O)N2c3ccccc3C(C)(c3ccccc3)CC2(C)C)s1 (stereo not drawn)	active: 16.4 µM	
CC(=O)C(/C=N/c1cc(-c2ccc(C)cc2)nn1-c1ccccc1)=C(\C)O		inactive: 3.2%
Cc1cc(C)n2nc(SCC(=O)N(CCC#N)c3ccc(F)cc3)nc2n1		inactive: -7.78%
CN(C)c1ccc(NC2=C([N+](=O)[O-])CS(=O)(=O)C2)cc1		inactive: 1.56%
O=C(C[n+]1ccc2ccccc2c1)c1ccc(F)cc1	inconclusive [inhibitor, single point]	
OCC(O)C1OC(c2ccco2)OC(CO)C1O (stereo not drawn)		inactive: 0.338%
NC(=O)COc1ccc(/C=N/NS(=O)(=O)c2ccccc2)cc1		inactive: 0.691%
COc1ccccc1CNC(=O)C(=O)NCC(c1ccco1)N1CCOCC1 (stereo not drawn)		inactive: -13.6%
COc1ccc(NC(=O)CCC(=O)c2ccc(F)cc2)cc1		inactive: 23.5%
CCCCCCSc1ccc([C@H]2N[C@@](CC(C)C)(C(=O)OC)[C@H]3C(=O)N(CC)C(=O)[C@@H]23)cc1	active: 20.6 µM	
CSc1nc(N)n2nc(-c3ccccc3)cc2n1		inactive: -1.75%
CCOc1ccccc1Nc1nc(-c2ccc(C)cc2)c(CC(=O)O)s1	inconclusive [inhibitor, single point]	
Cc1c(C(=O)N(C)c2cccc(Cl)c2)cnn1-c1ccccc1	inconclusive [inhibitor, single point]	

Compound	Potency	activity change, negative = growth inhibition
COc1ccc(CCN=c2c([N+](=O)[O-])nn(-c3cccc(C)c3)n2O)cc1OC	active: 10.3 µM	
CCN1C(=O)C(CC(=O)NCCc2ccccc2)N(NC(=O)c2cccnc2)C1=S (stereo not drawn)		inactive: 4.09%
COc1ccc(OC)c(NC(=O)C(C)n2nc(C)c3c(C)n(-c4ccccc4)nc3c2=O)c1 (stereo not drawn)	inconclusive [inhibitor, single point]	
COc1ccc(NC(=O)Nc2nc(C(N)CC(C)C)cs2)cc1 (stereo not drawn)	inconclusive [inhibitor, single point]	
COc1cccc(CNC(=O)CN2C(=O)N(c3c(C)cccc3C)S(=O)(=O)c3ccccc32)c1OC	active: 16.4 µM	
Cc1ccccc1CC1(C)C(=O)Nc2ccc(S(=O)(=O)NC3CCCCC3)cc21 (stereo not drawn)	inconclusive [inhibitor, single point]	
Cn1nc(C(=O)Nc2cc(Cl)ccc2N2CCCC2)c2ccccc2c1=O	inconclusive [inhibitor, single point]	
CCOc1ccc(S(=O)(=O)N(C(=O)c2ccco2)c2cc3sc(=O)oc3c3ccccc23)cc1	active: 18.4 µM	
CN(CCc1ccccc1)c1cc2c(c3c1ccn3C)C1CCC2C1 (stereo not drawn)	active: 16.4 µM	
Cc1cc(=O)n2nc(N3CCCC(C(=O)NCc4ccc(Cl)cc4)C3)sc2n1 (stereo not drawn)		inactive: -8.25%
CCCn1nc(C(=O)Nc2ccc(S(=O)(=O)Nc3nccs3)cc2)c2ccccc2c1=O		inactive: -18.7%
Cc1ccc(NC(=O)CN2C(=O)CC(c3ccc(F)cc3)=Nc3ccccc32)cc1F	active: 11.6 µM	
O=C(O)c1ccc(N/N=C/c2cc3c(cc2[N+](=O)[O-])OCO3)cc1	inconclusive [inhibitor, single point]	
O=C(OCc1ccccc1)N1CCC2CC1c1cc(N3CCNCC3)ccc12 (stereo not drawn)	inconclusive [inhibitor, single point]	
COc1ccc(C(C)NC(=O)c2ccc(Cl)cc2)cc1OC (stereo not drawn)		inactive: -4.09%
CC[N+](C)(CC)CCOC(=O)C(O)(c1ccccc1)C1CCCCC1 (stereo not drawn)	inconclusive [inhibitor, partial curve]	
C(=Nc1cnc2ccccc2c1)c1ccc2ccccc2n1	inconclusive [inhibitor, full curve, poor fit]	
O=C(Nc1cccc(NC(=O)c2cccs2)c1)c1ccc(F)cc1	inconclusive [inhibitor, single point]	
COc1ccc2c(c1)CCc1c(C(=O)Nc3c(C)nn(Cc4ccc(Cl)cc4)c3C)noc1-2	active: 20.6 µM	
CNC(=O)CCCCCNS(=O)(=O)c1ccc(C)cc1	inconclusive [inhibitor, single point]	
CC(C)N1CCc2c(sc(NC(=O)C3CCCCC3)c2C(N)=O)C1	inconclusive [inhibitor, single point]	
COc1ccc(/C=C\c2onc(C)c2S(=O)(=O)N2CCC(C(=O)Nc3cccc(C)c3C)CC2)cc1		inconclusive: -23.5% [inhibitor]
Cc1cccc(C)c1NC(=O)CCS(=O)(=O)c1ccc2c(c1)CC(C)N2C(=O)C1CC1 (stereo not drawn)	inconclusive [inhibitor, single point]	
CCN1C[C@@H]2[C@@H]3C(=O)N(Cc4ccccc4)C(=O)[C@@H]3[C@](Cc3ccccc3)(C1=O)N2C(=O)c1ccc(Br)cc1	inconclusive [inhibitor, full curve, poor fit]	
